Assay results as given in PubChem BioAssay AID1347165 (National Center for Advancing Translational Sciences (NCATS), 2019).
Several values for one entry are separate records, joined by “and”; a condition that tells them apart may be missing. Equal values may be shown once. In all, about 220,000 compounds went through this assay and about 5,700 (2.6%) were called active. The inconclusive results got no clear call from the source; some entries with a clear call stand among them for comparison. Calls come from the whole dose curve; as a rule, active = well fitted inhibition curve with a large enough effect; inconclusive = small, poorly fitted or top-dose-only effect; inactive = no such curve, though single readings can be large or run the other way. A potency beside an inconclusive call is a rough fit, not a confirmed value.

Target: Lysine-specific demethylase 5B (Homo sapiens) (UniProt Q9UGL1)
Assay: Primary screen for KDM5B Histone Demethylases FDH-coupled qHTS; note: nearly all actives have a fitted effect of over 70% in size; for activity change, negative = inhibition: 0% is about no effect
Settings: FDH-coupled NADH fluorescence (FDH is formaldehyde dehydrogenase); activity change, negative = inhibition: at 57.7 µM (top of the series) unless noted
How it was run: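 Here, H3K4me3 peptide (12.5 µM in substrate mix) is demethylated by KDM5BΔAP, 200 nM final, after 10 min compound exposure. Formaldehyde product is coupled through FDH (0.25 U/mL in mix) to NADH fluorescence; 30-min ΔRFU feeds dose-response curves.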
Potency is the fitted concentration of half-maximal effect; tags give direction and shape of the fitted curve.

Sequence of UniProt Q9UGL1 (Q9UGL1 whole entry, looked up): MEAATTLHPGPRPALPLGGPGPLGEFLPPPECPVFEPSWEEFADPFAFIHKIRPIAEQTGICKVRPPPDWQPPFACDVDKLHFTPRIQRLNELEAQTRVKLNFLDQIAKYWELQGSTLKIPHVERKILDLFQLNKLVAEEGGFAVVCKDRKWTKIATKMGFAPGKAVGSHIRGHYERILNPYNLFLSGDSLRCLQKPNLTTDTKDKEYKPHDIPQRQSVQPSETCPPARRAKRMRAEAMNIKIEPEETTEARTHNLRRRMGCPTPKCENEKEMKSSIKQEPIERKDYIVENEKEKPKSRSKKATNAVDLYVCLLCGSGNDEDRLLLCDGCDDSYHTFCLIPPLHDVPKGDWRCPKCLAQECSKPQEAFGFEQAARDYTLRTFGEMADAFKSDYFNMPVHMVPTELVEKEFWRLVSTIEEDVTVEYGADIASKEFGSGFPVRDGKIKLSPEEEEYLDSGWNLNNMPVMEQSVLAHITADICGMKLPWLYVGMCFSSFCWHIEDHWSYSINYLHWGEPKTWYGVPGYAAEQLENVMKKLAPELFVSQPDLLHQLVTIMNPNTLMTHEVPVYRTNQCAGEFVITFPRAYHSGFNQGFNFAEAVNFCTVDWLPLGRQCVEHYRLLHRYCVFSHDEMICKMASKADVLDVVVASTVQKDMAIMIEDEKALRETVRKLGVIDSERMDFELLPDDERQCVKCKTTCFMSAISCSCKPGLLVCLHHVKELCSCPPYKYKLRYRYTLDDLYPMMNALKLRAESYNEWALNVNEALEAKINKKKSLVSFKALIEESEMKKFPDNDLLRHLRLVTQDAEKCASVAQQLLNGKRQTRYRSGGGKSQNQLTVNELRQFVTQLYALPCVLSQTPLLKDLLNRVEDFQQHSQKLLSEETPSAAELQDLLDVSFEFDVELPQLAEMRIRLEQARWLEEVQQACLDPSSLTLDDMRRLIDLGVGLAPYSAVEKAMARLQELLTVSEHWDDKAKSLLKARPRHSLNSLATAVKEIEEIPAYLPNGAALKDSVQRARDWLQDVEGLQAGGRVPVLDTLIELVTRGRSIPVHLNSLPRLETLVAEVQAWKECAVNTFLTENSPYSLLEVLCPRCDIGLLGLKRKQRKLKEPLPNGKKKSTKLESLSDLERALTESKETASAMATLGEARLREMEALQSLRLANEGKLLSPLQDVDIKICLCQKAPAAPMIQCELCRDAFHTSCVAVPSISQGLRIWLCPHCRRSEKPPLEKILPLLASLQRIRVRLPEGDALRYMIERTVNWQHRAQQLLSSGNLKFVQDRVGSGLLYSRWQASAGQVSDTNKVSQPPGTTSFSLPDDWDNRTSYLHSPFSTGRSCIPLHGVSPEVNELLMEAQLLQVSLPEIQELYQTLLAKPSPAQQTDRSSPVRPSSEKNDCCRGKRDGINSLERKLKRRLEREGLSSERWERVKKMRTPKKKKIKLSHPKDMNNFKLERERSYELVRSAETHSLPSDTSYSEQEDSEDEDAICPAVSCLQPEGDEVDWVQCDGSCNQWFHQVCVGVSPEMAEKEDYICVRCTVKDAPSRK

SMILES | activity change, negative = inhibition | Potency
Cc1cc(NC(=O)CN2C(=O)NC(c3ccccc3Cl)C3=C2COC3=O)ccc1Br (configuration not stated) | inactive: 8.67% | –
Cc1nc2ccccc2c(C)c1C(=O)OCC(=O)NCC1CCCO1 (configuration not stated) | inactive: -29.1% | –
O=C(c1ccc(F)cc1)N1CCC2(CC1)CCN(Cc1cccs1)c1ccccc1O2 | – | inconclusive: 8.91 µM [inhibitor, partial curve]
Cc1ccc(C(=O)Nc2ccc(S(=O)(=O)N(Cc3ccccc3)c3ccccc3)cc2)cc1 | – | inconclusive: 25.1 µM [inhibitor, partial curve, poor fit]
Cc1ccccc1CC(=O)N1CCCC(c2noc(COc3ccccc3)n2)C1 (configuration not stated) | inactive: 7.07% | –
COc1cccc(N2CC(=O)N(NC(=O)c3sc4nc(C)cc(C)c4c3N)CC2=O)c1 | – | inconclusive: 31.6 µM [inhibitor, partial curve, poor fit]
COc1cccc(-c2cc(=O)n(-c3ccccc3OC)[nH]2)c1 | – | inconclusive: 2 µM [inhibitor, full curve, poor fit]
Cc1ccc(CNC(=O)Cn2c(-c3cccs3)cc3cc(Cl)ccc32)cc1 | – | inconclusive: 2 µM [inhibitor, full curve, poor fit]
N#Cc1cccc(NC(=O)CSc2ccccc2C(=O)Nc2ccc3c(c2)OCCCO3)c1 | inactive: -0.157% | –
O=C(Nc1nc2c(F)cccc2s1)c1ccc2c(c1)OCCO2 | – | inconclusive: 31.6 µM [inhibitor, partial curve, poor fit]
O=C(Cn1c(=O)ccc2cc(S(=O)(=O)N3CCCC3)ccc21)NCc1ccco1 | inactive: 18% | –
Cc1ccc(C(=O)N2CCC3(CC2)CCN(CCc2ccccc2)c2ccccc2O3)cc1 | – | inconclusive: 14.1 µM [inhibitor, partial curve]
Cc1ccc(CNC(=O)c2ccc3c(c2)NC(=O)C(CS(=O)(=O)Cc2cccc(F)c2)N3)cc1 (configuration not stated) | – | inconclusive: 31.6 µM [inhibitor, partial curve, poor fit]
Cc1ccc2c(c1)cc(S(=O)(=O)c1ccccc1)c(=O)n2CC(=O)N1CCCC1 | – | inconclusive: 25.1 µM [inhibitor, partial curve, poor fit]
O=C(Cn1cccc1-c1nc(-c2ccc3c(c2)OCO3)no1)Nc1ccc(F)cc1 | – | inconclusive: 39.8 µM [inhibitor, single point] and inconclusive: 28.2 µM [inhibitor, single point]
CS(=O)(=O)N1Cc2ccccc2CC2(CCN(Cc3ccncc3)C2)C1 (configuration not stated) | – | inconclusive: 50.1 µM [inhibitor, partial curve, poor fit]
COc1ccccc1-c1cn2c(n1)CO[C@@H](CNCc1ccc(F)c(F)c1)C2 | – | inconclusive: 31.6 µM [inhibitor, single point]
O=C(Cc1cccc(Cl)c1)NCc1nnc2ccc(-c3ccc(F)cc3)nn12 | – | inconclusive: 35.5 µM [inhibitor, partial curve, poor fit]
CN(C)C[C@@H]1CN(S(C)(=O)=O)C[C@H]1NC(=O)Cn1c(=O)oc2ccccc21 | inactive: 19.9% | –
CCc1c(C)nc2c(-c3ccccc3)c(C)nn2c1Nc1ccc(NC(C)=O)cc1 | – | inconclusive: 39.8 µM [inhibitor, single point]
O=C(Nc1ccccc1)Nc1ccc([C@H]2OCC(=O)N(Cc3ccncc3)[C@@H]2CO)cc1 | inactive: -10% [at 86.2 µM] | –
Cc1ccc2nc(NCC(N)=O)nc(-c3ccccc3)c2c1 | – | inconclusive: 28.2 µM [inhibitor, partial curve, poor fit]
N#Cc1c(N)n[nH]c1CCCNc1nc(-c2ccncc2)nc2ccccc12 | inactive: -4.51% | –

SMILES | activity change, negative = inhibition | Potency
Cc1cc(C(=O)NCc2cccnc2)c2ccccc2n1 | inactive: 45% | –
COc1cc([C@@H]2Nc3c(F)cccc3[C@@H]3C=CC[C@@H]32)cc(Br)c1OC | – | inconclusive: 15.8 µM [inhibitor, partial curve, poor fit]
Cc1c(C(=O)O)oc2c1-c1nn(Cc3ccccc3Cl)cc1CC2 | – | inconclusive: 31.6 µM [inhibitor, partial curve, poor fit]
CC(C)c1ccc(C(=O)NCCC2=CCCCC2)cc1 | inactive: 17.2% | –
Nc1c(-c2ccc(Cl)cc2)cnc2c(-c3ccccc3)cnn12 | – | inconclusive: 20 µM [inhibitor, partial curve, poor fit]
COC[C@@H]1CN(c2ncccn2)C[C@H]1C(=O)N1CCOCC1 | – | active: 25.1 µM
CN(C)C(=O)N1CCCn2nc(CNC(=O)c3ccc4[nH]ccc4c3)cc2C1 | – | inconclusive: 20 µM [inhibitor, single point]
CC(=O)Nc1cccc(-c2cn(C)c(=O)n3cc(COc4ccnn4C)nc23)c1 | – | inconclusive: 25.1 µM [inhibitor, partial curve, poor fit]
Cc1cc(S(=O)(=O)N2CCOC23CCN(C(=O)c2cccc(F)c2)CC3)ccc1F | inactive: 13.1% | –
CCNC(=O)NC(=O)CSc1nc(C)c(C)n1C1CCCC1 | inactive: -26.3% | –
c1ccc(COC2CCN(c3nccc(-c4cccnc4)n3)CC2)nc1 | – | inconclusive: 28.2 µM [inhibitor, partial curve, poor fit]
CC(=O)Nc1ccc(CN2CCC3(CC2)CC(=O)c2ccccc2O3)cc1 | – | active: 22.4 µM
CCCOc1ccc(C(=O)Cc2ccccc2)cc1 | inactive: -4.86% | –
CNC(=O)NC(=O)CN(CCC1CCCCC1)CC(N)=O | inactive: -5.51% | –
O=C(CSc1nc2c([nH]c3ccccc32)c(=O)n1-c1ccc(F)cc1)Nc1ccc2c(c1)OCCO2 | – | inconclusive: 35.5 µM [inhibitor, partial curve, poor fit]
Cc1c(NC(=O)Cc2ccccc2)cccc1-c1nc2cccnc2s1 | – | inconclusive: 15.8 µM [inhibitor, partial curve, poor fit]
Cn1nc(-c2ccccc2F)c2cc(C(=O)N3CCN(c4ccccc4F)CC3)sc21 | – | inconclusive: 25.1 µM [inhibitor, single point]
CCOc1ccc(NC(=O)c2cc3nc(-c4ccc(OC)cc4)cc(C(F)(F)F)n3n2)cc1 | – | inconclusive: 11.2 µM [inhibitor, partial curve, poor fit]
COC(=O)c1ccc2c(=O)n(CCCCCC(=O)N3CCN(c4cccc(C)c4C)CC3)c(=O)[nH]c2c1 | – | inconclusive: 31.6 µM [inhibitor, single point]
COc1ccc(-c2cc(N3CCCC(NC(=O)c4ccccc4)C3)n[nH]2)cc1 (configuration not stated) | – | inconclusive: 17.8 µM [inhibitor, partial curve, poor fit]
COCCCNc1nc2c(-c3cccc(Br)c3)nnn2c2ccccc12 | – | inconclusive: 7.94 µM [inhibitor, partial curve, poor fit]
O=C(NCCc1ccccc1)c1cc(Cl)ccn1 | inactive: 17.1% | –
Cc1ccc(C(=O)c2ccccc2C(=O)NC2CCCC2)cc1 | inactive: 4.09% | –

SMILES | activity change, negative = inhibition | Potency
CCC(C(=O)Nc1cccc(C(C)=O)c1)n1c(=O)c(-c2ccccc2NC(C)=O)nc2ccccc21 (configuration not stated) | inactive: -24% | –
Cn1cccc1-c1cc2n(n1)CCC(=O)N2CC(=O)Nc1ccc(F)cc1Cl | – | inconclusive: 39.8 µM [inhibitor, single point]
CCOc1cc(CNc2ccc(O)cc2)cc(Cl)c1OCc1ccccc1 | – | inconclusive: 3.55 µM [inhibitor, full curve, poor fit]
Cn1c(=O)c2c(-c3ccccc3Cl)[nH]cc2n(C)c1=O | inactive: -2.72% | –
COc1ccc(CN2Cc3cc(NC(=O)c4ccccc4F)ccc3OC(C)C2=O)c(OC)c1 (configuration not stated) | inactive: 15.7% | –
CN1CCCCCCN(C(=O)c2cnccn2)[C@H]2CCC[C@H]2C1=O | inactive: -19.6% | –
CCOc1ccc(/C=C/c2nc(C#N)c(NCCN(C)C)o2)cc1 | – | inconclusive: 14.1 µM [inhibitor, partial curve, poor fit]
COc1cc(OC)c(N(C)C(=O)c2cc3c(s2)-c2ccccc2OC3)cc1Cl | – | inconclusive: 25.1 µM [inhibitor, partial curve, poor fit]
CCc1cccc(NS(=O)(=O)c2ccc(-c3coc(C)n3)cc2)c1 | – | inconclusive: 31.6 µM [inhibitor, partial curve, poor fit]
O=C(c1sccc1-c1ccccc1)N1CCN(S(=O)(=O)c2cc(F)ccc2F)CC1 | inactive: 2.78% | –
NC(=O)c1ccc(NC(=O)Cn2nc(-c3cccs3)c3ccccc3c2=O)cc1 | inactive: 11.6% | –
CC(C)(C)CN1CCOC[C@H]1c1ncc(-c2ccc(Cl)s2)[nH]1 | – | inconclusive: 35.5 µM [inhibitor, partial curve, poor fit]
CCOc1cccc(NC(=O)c2ccc(C)cc2)c1 | inactive: -1.44% | –
COc1ccc(NC(=O)c2cc(-c3cccnc3)nc3ccccc23)cc1 | inactive: 8.5% | –
COc1ccccc1CNC(=O)CCC[C@H]1NC[C@@H]2C[C@H]1CN(Cc1ccccc1)C2 | – | active: 4.47 µM
CCOc1ccc(OCC)c(NC(=O)c2cc(S(=O)(=O)N3CCCC3)cn2C)c1 | – | inconclusive: 35.5 µM [inhibitor, partial curve, poor fit]
Cc1ccc2nc3c(c(Nc4ccccc4)c2c1)CCC3 | – | inconclusive: 39.8 µM [inhibitor, single point]
COc1ccc(NC(=O)C2CC(=O)N(c3n[nH]c4cccc(F)c34)C2)cc1 (configuration not stated) | – | active: 25.1 µM
COc1ccccc1CNC(=O)c1ccc(Cn2c(SCc3ccccc3)nc3cccnc32)cc1 | – | inconclusive: 31.6 µM [inhibitor, partial curve, poor fit]
CN(c1ccccc1)c1ccc2nnc(-c3cc(C(=O)NCCc4ccccc4)ccn3)n2n1 | – | inconclusive: 31.6 µM [inhibitor, single point]
CCOc1ccc(C(=O)N2CCC(c3nnc(-c4ccccc4OC)o3)CC2)cc1 | inactive: -14.4% | –
